Source: the RNAGym collection of RNA variant scans (doi:10.1073/pnas.2313332121)
Variants at the background level are over-represented here.

B1: TPR 5TU (parent)
chain: GGAUCUUCUCGAUCUAACAAAAAAGACAAAUCUGCCACAAAGCUUGAGAGCAUCUUCGGAUGCAGAGGCGGCAGCCUUCGGUGGCGCGAUAGCGCCAACGUUCUCAACUAUGACACGCAAAACGCGUGCUCCGUUGAAUGGAGUUUAUCAUG

Variants of: B1
Experiment: polymerase ribozyme fitness, log enrichment relative to wild type (log ratio); higher = more active; in vitro selection for triplet polymerase activity
Summary of the method: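 Fitness measures genotype enrichment against wild-type enrichment on a logarithmic scale, with inverse-variance-weighted averaging of replicates. The logarithm is base 2, and genotypes were kept only with ≥10 input reads and ≥1 read per output in Illumina sequencing. The sequenced libraries came from one triplicate in vitro selection round, including frozen incubation at −7 °C, of PCR-built, transcribed mutant libraries of each subunit of a heterodimeric triplet polymerase ribozyme.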

Going from GGAUCUUCUCGAUCUAACAAAAAAGACAAAUCUGCCACAAAGCUUGAGAGCAUCUUCGGAUGCAGAGGCGGCAGCCUUCGGUGGCGUGAUAGCGCCAACGUUCACAACUAUGACACGCAAAACGCGUGCUCCGUUGAGUCGAGUUUAUCAUG [C87U U104A A138G G140C] to GGAUCUUCUCGAUCUAACAAAAAAGACAAAUCUGCCACAAAGCUUGAGAGCAUCUUCGGAUGCAGAGGCGGCAGCCUUCGGUGGCGUGAUAGCGCCAACGUUCUCAACUAUGACACACAAAACGCGUGCUCCGUUGAAUGGAGUUUAUCAUG [C87U G117A], the “polymerase ribozyme fitness (log ratio)” value rises from ≤ -4.2 to -0.356.

Compared with GGAUCUUCUCGAUCUAACAAAAAAGACAAAUCUGCCACAAAGCUUGAGAGCAUCUUCGGAUGCAGAGGCGGCAGCCUUCGGUGGCGUGAUAGCGCCAACGUUCUCAACUAUGACACGUAAAACGCGUGCUCCGUUGAAUGGACUUUAUCAUG [C87U C118U G143C], GGAUCUUCUCGAUCUAACAAAAAAGACAAAUCUGCCACAAAGCUUGAGAGCAUCUUCGGAUGCAGAGGCGGCAGCCUUCGGUGGCGUGAUAGCGCCAACGUUCUCAACCAUGACACGCAAAACGCGUGCUCCGUUGAAUGGAGUUUAUCAUG [C87U U109C] is lower in “polymerase ribozyme fitness (log ratio)” value: -2.54 for the first, -3.46 for the second.

Going from GGAUCUUCUCGAUCUAACAAAAAAGACAAAUCUGCCACAAAGCUUGAGAGCAUCUUCGGAUGCAGAGGCGGCAGCCUUCGGUGGCGGGAUAGCGCCAACGUUCCCAACUAUGACACGCAAAACGCGUGCUCCGUUGAAUGGAGUUUAUCAUG [C87G U104C] to GGAUCUUCUCGAUCUAACAAAAAAGACAAAUCUGCCACAAAGCUUGAGAGCAUCUUCGGAUGCAGAGGCGGCAGCCUUCGGUGGCGUGAUAGCGCCAACGUUCUCAACUAUGACACGCAAAACGCGUGCUCCGUUGAAUUGAGUUUAUCAUG [C87U G140U], the “polymerase ribozyme fitness (log ratio)” value rises from ≤ -4.2 to -3.68.

Going from GGAUCUUCUCGAUCUAACAAAAAAGACAAAUCUGCCACAAAGCUUGAGAGCAUCUUCGGAUGCAGAGGCGGCAGCCUUCGGUGGCGGGAUAGCGCCAACGUUCUCAACUAUGACACGCAAAACGCGUACUCCGUUGAAAGGAACUUAUCAUG [C87G G128A U139A G143A U144C] to GGAUCUUCUCGAUCUAACAAAAAAGACAAAUCUGCCACAAAGCUUGAGAGCAUCUUCGGAUGCAGAGGCGGCAGCCUUCGGUGGCGUGAUAGCGCCAACGUUCUCAACUAUGACUCGCAAAACGCGUGCUCCGUUGAAUUGAGUUUAUCAUG [C87U A115U G140U], the “polymerase ribozyme fitness (log ratio)” value rises from ≤ -4.2 to -4.19.

GGAUCUUCUCGAUCUAACAAAAAAGACAAAUCUGCCACAAAGCUUGAGAGCAUCUUCGGAUGCAGAGGCGGCAGCCUUCGGUGGCGCAAUAGCGCCAACGUUCUAAACUAUGACACGCAAAACGCGUGCUCCGUUGAAUGGAGUUUCUCAGG [G88A C105A A147C U151G] and GGAUCUUCUCGAUCUAACAAAAAAGACAAAUCUGCCACAAAGCUUGAGAGCAUCUUCGGAUGCAGAGGCGGCAGCCUUCGGUGGCGUGAUAGCGCCAACGUUAUCAACUAUGACACGCAAAACGCGAGCUCCGUUGAAUGGAGUUUAUCAUG [C87U C103A U127A] cannot be ordered by “polymerase ribozyme fitness (log ratio)” value: ≤ -4.2 for the first, ≤ -4.2 for the second.

GGAUCUUCUCGAUCUAACAAAAAAGACAAAUCUGCCACAAAGCUUGAGAGCAUCUUCGGAUGCAGAGGCGGCAGCCUUCGGUGGCGUGAUAGGGCCAACGUUCUCAACUAUGACACGCAAUACGCGUGCUCAGUUGAAUGGAGUUUAUCAUG [C87U C93G A121U C132A] and GGAUCUUCUCGAUCUAACAAAAAAGACAAAUCUGCCACAAAGCUUGAGAGCAUCUUCGGAUGCAGAGGCGGCAGCCUUCGGUGGCGUGAUAGCGCCGACCUUCUCAACUAUGACACGCAAAACGGGUGCUCCGUUGAAUGGAGUUUAUCAUG [C87U A97G G100C C125G] cannot be ordered by “polymerase ribozyme fitness (log ratio)” value: ≤ -4.2 for the first, ≤ -4.2 for the second.

GGAUCUUCUCGAUCUAACAAAAAAGACAAAUCUGCCACAAAGCUUGAGAGCAUCUUCGGAUGCAGAGGCGGCAGCCUUCGGUGGCGUAAUAGCGCCAACGUUCUCAACUAGGACACGCAAAACGCGUGCUCCGUUGAAUGGAGUUUAUCAUG [C87U G88A U111G] and GGAUCUUCUCGAUCUAACAAAAAAGACAAAUCUGCCACAAAGCUUGAGAGCAUCUUCGGAUGCAGAGGCGGCAGCCUUCGGUGGCGGGAUAGCGCCAACGUUCUCAACUAUGACACGCAAAACGCGUGCUCCGUUGAAUGCAGUUUAUCUUG [C87G G141C A150U] cannot be ordered by “polymerase ribozyme fitness (log ratio)” value: ≤ -4.2 for the first, ≤ -4.2 for the second.

Going from GGAUCUUCUCGAUCUAACAAAAAAGACAAAUCUGCCACAAAGCUUGAGAGCAUCUUCGGAUGCAGAGGCGGCAGCCUUCGGUGGCGUGAUAGCGCCAACGGUCUCAACUAUGACACGCAAAACGCGUGCUCCGUUGCAUGGAGUUUAUCAUG [C87U U101G A137C] to GGAUCUUCUCGAUCUAACAAAAAAGACAAAUCUGCCACAAAGCUUGAGAGCAUCUUCGGAUGCAGAGGCGGCAGCCUUCGGUGGCGUGAUAGCGCCAACGUUCUCAACUAUGACACGCAAAACGCGUGCUCCGUUGAAUGGAGUGUAUCAUG [C87U U145G], the “polymerase ribozyme fitness (log ratio)” value rises from -3.73 to -1.51.

Going from GGAUCUUCUCGAUCUAACAAAAAAGACAAAUCUGCCACAAAGCUUGAGAGCAUCUUCGGAUGCAGAGGCGGCAGCCUUCGGUGGCGUGAUAGCGCCAACGUUCUGAACUAUGACACGCAAUUCGCGUGCUCCGUUGAAUGGAGUUUAUCAUG [C87U C105G A121U A122U] to GGAUCUUCUCGAUCUAACAAAAAAGACAAAUCUGCCACAAAGCUUGAGAGCAUCUUCGGAUGCAGAGGCGGCAGCCUUCGGUGGCGGGACAGCGUCAACGUUCUCAACUAUGACACGCAAAACGCGGGCUCUGUUGAAUGGAGUUUAUCAUG [C87G U90C C95U U127G C132U], the “polymerase ribozyme fitness (log ratio)” value falls from -1.19 to ≤ -4.2.

With GGAUCUUCUCGAUCUAACAAAAAAGACAAAUCUGCCACAAAGCUUGAGAGCAUCUUCGGAUGCAGAGGCGGCAGCCUUCGGUGGCGUGAUAGCGCCAACGUUCUCAACUAUGACACGCAAAACGCGUGCUCCGUUGAAUGGAGUUUAUCGUU [C87U A150G G152U] the “polymerase ribozyme fitness (log ratio)” value was ≤ -4.2.
